Reference: patent publication US8673940B2, “Compounds for the treatment of diseases associated with amyloid or amyloid-like proteins” (AC Immune SA, priority 2006, dated 2014)
Where a name gives a salt, the structure may show the parent alone. Read-outs that look alike come from different tables or passages of the source. Entries with a single value are a further part of the results.

melting point (free base): 117 to 118 °C
melting point (hydrochloride salt): 133 to 134 °C
SMILES: Fc1ccc(-c2cc(NCc3cccc(NCc4ccccc4)n3)n[nH]2)cc1 (as salt: hydrochloride) [Compound 2t, N-Benzyl-6-((5-(4-fluorophenyl)-1H-pyrazol-3-ylamino)methyl)pyridin-2-amine]
